Experimental data published in PubChem BioAssay AID904 (National Center for Advancing Translational Sciences (NCATS), 2007).
Hit rate of the full screen: of about 55,000 compounds, about 530 (0.96%) were called active. Inconclusive means that the source gave no clear call. Such entries were picked first, then a sample of the others. Calls come from the whole dose curve; as a rule, active = well fitted cell-killing curve with a large enough effect; inconclusive = small, poorly fitted or top-dose-only effect; inactive = no such curve, though single readings can be large or run the other way. Potencies of inconclusive entries are doubtful fits and often do not repeat.

Experiment: qHTS Screen for Compounds that Selectively Target Cancer Cells with p53 Mutations: Cytotoxicity of p53 Null Cells at the Nonpermissive Temperature; note: nearly all actives have a fitted effect of over 50% in size;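 for activity, negative = cell killing: 0% = DMSO only and -100% = full killing by 100 µM tamoxifen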
Conditions: H1299 p53-null (neo) cells, 39C, ATPlite viability, 24 h; activity, negative = cell killing: at 46.1 µM (top of the series)
Procedure, shortened: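 Cells seeded at 600/well, 37C overnight. Compound added (up to 46 uM), plates shifted to 39C for 24 hr. ATPlite added, luminescence read after 20 min at room temperature.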
Potency is the fitted concentration of half-maximal effect; tags give direction and shape of the fitted curve.

Row | SMILES | Potency | activity, negative = cell killing
1 | COc1ccc(C(CNC(=O)c2cccc([N+](=O)[O-])c2)N2CCOCC2)cc1 (configuration not stated) | inconclusive: 25.1 µM [cytotoxic, single point] | 
2 | CCc1ccc(NC(=O)CN2CCSc3ccc(S(=O)(=O)N4CCCC4)cc32)cc1 | inconclusive: 0.891 µM [cytotoxic, full curve, poor fit] | 
3 | CC(C)c1ccc(Nc2ncnc3c2nc2n3CCCC2)cc1 | inconclusive: 4.47 µM [cytotoxic, partial curve] | 
4 | CCOc1ccc2oc(=O)cc(CN3CCN(Cc4ccc(F)cc4)CC3)c2c1 |  | inactive: -8.57%
5 | Cc1cc(C)cc(Nc2nc3ccccc3n3cnnc23)c1 | inconclusive: 15.8 µM [cytotoxic, single point] | 
6 | COc1cc(C2N=C(N)Nc3nc4ccccc4n32)ccc1OCC(=O)O (configuration not stated) | inconclusive: 0.0251 µM [cytotoxic, full curve, poor fit] | 
7 | Cc1c(NC(=O)c2cc(-n3cnnc3)ccc2Cl)cccc1-c1nc2ccccc2o1 | inconclusive: 12.6 µM [cytotoxic, partial curve, poor fit] | 
8 | Cc1cc(C)cc(NC(=O)Cn2nnc(C(=O)NCc3ccccc3Cl)c2N)c1 | inconclusive: 7.94 µM [cytotoxic, partial curve] | 
9 | Cc1c(Cl)cccc1NC(=O)Cn1cc(C(=O)C2CCCCC2)c2ccccc21 | inconclusive: 15.8 µM [cytotoxic, partial curve] | 
10 | COc1ccc(NC(=O)Cn2c(=O)n(Cc3ccco3)c(=O)c3cc(OC)c(OC)cc32)cc1 | inconclusive: 12.6 µM [cytotoxic, single point] | 
11 | Cc1ccc(Nc2c(-c3ccsc3)nc3cccc(C)n23)cc1 | inconclusive: 11.2 µM [cytotoxic, single point] | 
12 | CS(=O)(=O)c1oc(-c2ccc(F)cc2)nc1S(=O)(=O)c1ccc(Cl)cc1 | inconclusive: 31.6 µM [cytotoxic, single point] | 
13 | CCCCOc1ccccc1CC1C(=O)Nc2ccc(Br)cc21 (configuration not stated) | inconclusive: 31.6 µM [cytotoxic, single point] | 
14 | COc1cc(C(=O)n2nc(C)c(Sc3ccc(Cl)cc3)c2C)cc(OC)c1OC | inconclusive: 25.1 µM [cytotoxic, single point] | 
15 | CCOc1ccccc1-n1nnc(-c2nsc(NC(=O)c3ccc(C)cc3)n2)c1C | inconclusive: 0.0631 µM [cytotoxic, full curve, poor fit] | 
16 | Cc1cccc(N2CCN(CCNC(=O)Nc3ccc(Cl)cc3)CC2)c1C | inconclusive: 12.6 µM [cytotoxic, single point] | 
17 | Brc1cccc(Cn2c(-c3cncs3)nc3ccccc32)c1 | inconclusive: 7.94 µM [cytotoxic, partial curve] | 
18 | Cc1ccccc1OCc1ccc(-c2nc(C#N)c(NCc3cccnc3)o2)o1 | inconclusive: 20 µM [cytotoxic, single point] | 
19 | Oc1ccccc1-c1nc(/C=C/c2ccccc2Cl)nn1-c1ccccc1 |  | inconclusive: -37.1% [cytotoxic]
20 | Cc1cc(OCCCCCNCCO)ccc1Cl | inconclusive: 11.2 µM [cytotoxic, single point] | 
21 | CCCOC(=O)c1c(NC(=O)c2nc3ncccn3n2)sc(C(N)=O)c1C | inconclusive: 0.0501 µM [cytotoxic, single point] | 
22 | CCOc1ccc(CNC(=O)C2Cc3ccccc3N2C(=O)CC)cc1OC (configuration not stated) |  | inactive: 7.99%
23 | CCOc1ccccc1CN1CCN(S(=O)(=O)c2ccccc2)CC1 | inconclusive: 15.8 µM [cytotoxic, partial curve, poor fit] | 

Row | SMILES | Potency | activity, negative = cell killing
24 | O=C(Nc1ccc(F)cc1)c1csc2c1CCCCC2 | inconclusive: 28.2 µM [cytotoxic, single point] | 
25 | COc1ccc(CC(=O)Nc2sc3c(c2C(=O)Nc2ccccc2)CCCCC3)cc1 | inconclusive: 2.51 µM [cytotoxic, partial curve] | 
26 | CCc1ccc(S(=O)(=O)c2nnn3c2nc(Nc2cc(OC)ccc2OC)c2sccc23)cc1 | inconclusive: 0.01 µM [cytotoxic, full curve, poor fit] | 
27 | COc1ccc(CNC(=O)c2cc3c(=O)n(Cc4ccco4)ccc3nc2C)cc1 | inconclusive: 1 µM [cytotoxic, full curve, poor fit] | 
28 | Cc1cc(C)c(NC(=O)CN(C)S(=O)(=O)c2ccc3c(c2)CCC(=O)N3)c(C)c1 |  | inactive: -20.9%
29 | COc1ccc(-c2[nH]c(-c3ccc(O)cc3)nc2-c2ccccc2)cc1 | inconclusive: 31.6 µM [cytotoxic, single point] | 
30 | CCS(=O)(=O)N1CCc2cc(C(=O)Nc3ccc(Br)cc3F)ccc21 |  | inactive: -6.38%
31 | CC(CNC(=O)c1ccc2c(c1)nc1n2CCCCC1)c1ccccc1 (configuration not stated) | inconclusive: 12.6 µM [cytotoxic, partial curve] | 
32 | O=C(CCC(=O)N1CCSc2ccccc21)Nc1ccc(Cl)cc1 | inconclusive: 25.1 µM [cytotoxic, single point] | 
33 | Cc1sc(-n2cccc2)c(C(C)NC(=O)Nc2cccc(C(F)(F)F)c2)c1C (configuration not stated) | inconclusive: 10 µM [cytotoxic, partial curve] | 
34 | Cc1ccc(C(=O)Nc2nc3ccc(S(C)(=O)=O)cc3s2)o1 | active: 10 µM | 
35 | Cn1ccc2cc(S(=O)(=O)N3CCCC(C(=O)NCc4ccccc4)C3)ccc21 (configuration not stated) | inconclusive: 0.224 µM [cytotoxic, full curve] | 
36 | COc1ccc(S(=O)(=O)Nc2cccc(-c3ccc(N4CCC(C)CC4)nn3)c2)cc1OC | active: 7.94 µM | 
37 | CC(=O)c1cccc(NC(=O)c2nc3ccccc3n(C)c2=O)c1 | active: 2.51 µM | 
38 | COc1cc(C2c3c(-c4ccccc4O)n[nH]c3C(=O)N2CCO)ccc1OCc1ccccc1 (configuration not stated) | inconclusive: 3.16 µM [cytotoxic, single point] | 
39 | CC(C)c1ccc(S(=O)(=O)c2nnn3c2nc(N2CCN(C)CC2)c2sccc23)cc1 |  | inactive: -19.2%
40 | CCN1CCN(CCCNC(=O)c2cc3c(s2)-c2ccccc2OC3)CC1 | inconclusive: 35.5 µM [cytotoxic, single point] | 
41 | COc1ccc2c(Sc3ccccc3)c(C(=O)NCCc3ccc(Cl)cc3)[nH]c2c1 | inconclusive: 12.6 µM [cytotoxic, single point] | 
42 | COc1ccc(Br)cc1S(=O)(=O)N1CCCC1 |  | inactive: -11.8%
43 | CCc1cccc(N2C(=O)N(CC(=O)NCc3cccc(OC)c3OC)c3ccccc3S2(=O)=O)c1 |  | inactive: -2.97%
44 | COc1ccc(C(=O)NCCc2sc(-c3ccc(Cl)cc3)nc2C)c(OC)c1 | inconclusive: 12.6 µM [cytotoxic, partial curve, poor fit] | 
45 | Nc1ccc2oc(-c3ccc4nc[nH]c4c3)nc2c1 | active: 12.6 µM | 
46 | Cc1ccc(NC(=O)CSc2nc(-c3cccs3)nc3cc(=O)[nH]n23)cc1 |  | inactive: -9.4%

Row | SMILES | Potency | activity, negative = cell killing
47 | Cc1nnc2c(Nc3cccc(O)c3)nc3ccccc3n12 | inconclusive: 12.6 µM [cytotoxic, partial curve] | 
48 | COc1ccc(C(=O)NCC2(N3CCN(C)CC3)CCCCC2)cc1 | inconclusive: 0.1 µM [cytotoxic, full curve] | 
49 | COc1ccc(OC)c(-c2cc(C(=O)Nc3cnn(Cc4ccc(Cl)cc4Cl)c3)no2)c1 | active: 10 µM | 
50 | CCN1CCN(c2ncc3c(n2)CCN(Cc2ccc(Br)s2)C3)CC1 |  | inactive: -5.76%
51 | CCOc1ccc(/C=C/c2nc3ccccc3n2S(=O)(=O)c2ccc(Br)cc2)cc1 | active: 7.94 µM | 
52 | Cc1noc(/C=C/c2ccccc2F)c1S(=O)(=O)N1CCC(C(=O)N(C)Cc2ccco2)CC1 | inconclusive: 31.6 µM [cytotoxic, single point] | 
53 | COc1ccc2nc(NC(=O)c3cc(=O)c4ccccc4o3)sc2c1 | inconclusive: 6.31 µM [cytotoxic, full curve] | 
54 | COc1ccc(NC(=O)CSc2nc3ccccc3n2Cc2cccc(OC)c2)cc1 | inconclusive: 15.8 µM [cytotoxic, single point] | 
55 | COc1cc(C2c3c(-c4cc(C)ccc4O)n[nH]c3C(=O)N2CCCO)ccc1OCCC(C)C (configuration not stated) | inconclusive: 22.4 µM [cytotoxic, single point] | 
56 | CN(C)CCN(Cc1ccco1)C(=O)c1oc2ccccc2c1NC(=O)c1ccccc1 | inconclusive: 1.58 µM [cytotoxic, partial curve] | 
57 | COc1ccc(NS(=O)(=O)c2ccc3[nH]c4c(c3c2)CCCC4)cc1Cl |  | inactive: -18.9%
58 | CCCCCn1c(-c2ccc(OC)c(OC)c2)nc2ccccc21 | inconclusive: 35.5 µM [cytotoxic, single point] | 
59 | Cc1ccc(/C=C/c2onc(C)c2S(=O)(=O)N2CCC(C(=O)NCC(C)c3ccccc3)CC2)cc1 (configuration not stated) |  | inactive: 8.48%
60 | CCOc1ccc(NC(=O)c2ccccc2O)cc1 | active: 7.94 µM | 
61 | Cc1ccc(NC(=O)c2sc3nc4c(cc3c2N)CN(Cc2ccccc2)CC4)cc1 | inconclusive: 25.1 µM [cytotoxic, single point] | 
62 | Cc1ccc2sc(NC(=O)c3ccc4c(c3)OCCO4)nc2c1C | inconclusive: 0.0794 µM [cytotoxic, full curve] | 
63 | O=C(NCCCN1CCN(c2ccc(F)cc2)CC1)c1ccc2nc(Cc3ccccc3)oc2c1 |  | inactive: -6.91%
64 | CCOc1ccc(C2CC(=O)Nc3c2c(=O)nc(SCc2ccccc2C)n3C)cc1OC (configuration not stated) |  | inactive: -9.79%
65 | COc1ccc(CNC(=O)C2CCN(c3nc4ccccc4[nH]3)CC2)cc1OC | inconclusive: 0.562 µM [cytotoxic, full curve] | 
66 | COCCCNc1oc(-c2ccc(COc3ccc(Cl)cc3)o2)nc1C#N | inconclusive: 35.5 µM [cytotoxic, single point] | 
67 | Cc1ccc(NC(=O)CCc2c(C)nc3cc(-c4ccccc4)nn3c2C)cc1F |  | inconclusive: -31.2% [cytotoxic]
